Measured values from PubChem BioAssay AID1671194 (National Center for Advancing Translational Sciences (NCATS), 2021).
The campaign covered roughly 140,000 compounds. About 240 (0.17%) were called active. Inconclusive means that the source gave no clear call. Such entries were picked first, then a sample of the others. Calls follow the shape of the dose curve; as a rule, active = well fitted inhibition curve with a large enough effect; inconclusive = small, poorly fitted or top-dose-only effect; inactive = no such curve, though single readings can be large or run the other way. A potency beside an inconclusive call is a rough fit, not a confirmed value.

test: Primary qHTS assay for inhibitors of alpha-synuclein gene (SNCA) expression; settings: HEK-293 SNCA-luciferase knock-in, luminescence, 24 h; series mostly up to 57.2 µM; also: nearly all actives have a fitted effect of over 45% in size
Potency is read from the fitted curve at half-maximal effect; tags tell the direction and shape of the fitted curve.

Row | Compound | Potency
1 | Cc1ccc(NC(=O)Cn2ncn3c(cc4ccccc43)c2=O)cc1F | inactive
2 | O=C(CN1C(=O)COc2ccc(Cl)cc21)Nc1ccc(F)cc1 | inconclusive: 7.08 µM [inhibitor, single point]
3 | Cc1ccc(S(=O)(=O)N2C[C@@H](C(N)=O)[C@H](C3CCN(C)CC3)C2)cc1Cl | inconclusive: 28.2 µM [inhibitor, single point]
4 | Clc1cccc(CN2CCOC[C@H](Oc3cccnc3)C2)c1 | inactive
5 | O=c1[nH]cnc2c1ncn2[C@H]1CC[C@@H](CO)O1 | inconclusive: 12.1 µM [inhibitor, full curve, poor fit]
6 | O=C(CC1CNCCO1)N1CCc2nc(-c3ccc(Cl)cc3)[nH]c2C1 (centres undefined) | inactive
7 | CCCNc1cc(N2CCC(CCC(=O)NCc3ccccc3Cl)CC2)ncn1 | active: 2.82 µM
8 | O=C(c1ccc2[nH]ncc2c1)N1CCOCC12CCN(Cc1cccc(OC(F)(F)F)c1)CC2 | inconclusive: 3.98 µM [inhibitor, single point]
9 | N#Cc1cccc(CN2CC(N3CC(C(=O)NCc4ccccc4)CC3=O)C2)c1 (centres undefined) | inactive
10 | Fc1ccc([C@@H]2CCNC[C@H]2COc2ccc3c(c2)OCO3)cc1 | inconclusive: 39.8 µM [inhibitor, single point]
11 | O=C1c2c(nc(CNCc3ccc4c(c3)OCO4)n2Cc2ccccc2)NCCN1CCOc1ccccc1 | inactive
12 | COc1cc(NC(=O)c2cccc3c2C(=O)N(C2CCCCC2)C3)cc(OC)c1OC | inconclusive: 39.8 µM [inhibitor, single point]
13 | Cc1n[nH]c(C)c1C(NC(=O)c1c(C)c2cccc(C)c2n1C)C(=O)O (centres undefined) | inactive
14 | CC(C)NC(=O)c1ccc2nc(-c3ccccn3)oc2c1 | inconclusive: 39.8 µM [inhibitor, single point]
15 | CCCCc1cc(C[C@@H]2C[C@H](NC(=O)N3CCOCC3)C2(C)C)no1 | inconclusive: 56.2 µM [inhibitor, partial curve, poor fit]
16 | O=C(NCc1ccccc1)c1ccc2oc(-c3ccncc3)nc2c1 | inactive
17 | O=C1NCc2ccccc2CC12CCCN(Cc1ccccc1OC(F)(F)F)C2 (centres undefined) | inconclusive: 39.8 µM [inhibitor, single point]
18 | CCOc1ccccc1-n1nnc(-c2nsc(NC(=O)c3ccc(C)cc3)n2)c1C | inconclusive: 20 µM [inhibitor, single point]
19 | Cc1ccccc1C(=O)N1CCC(c2nn(-c3ccc(Cl)cc3)c(=O)[nH]2)CC1 | inconclusive: 39.8 µM [inhibitor, single point]
20 | COc1cccc(N2CCN(C(=O)CN3CC4CC(C3)[C@H]3CCCC(=O)N3C4)CC2)c1 (some centres undefined) | inconclusive: 39.8 µM [inhibitor, single point]
21 | Cc1cccc(C(=O)NCN2CCN(c3ccccc3C#N)CC2)c1 | inactive
22 | CNC(=O)N1CCC(C2CCN(Cc3ccncc3)C2)CC1 (centres undefined) | inconclusive: 39.8 µM [inhibitor, single point]
23 | O=S(=O)(Cc1ccccc1)N1CCC(OC2CCN(Cc3ccccc3)CC2)CC1 | inactive

Row | Compound | Potency
24 | COc1ccccc1Nc1ncc2c(n1)CN(C(=O)c1cccc(O)c1)CCN2 | inactive
25 | O=C1Nc2ccc(-c3ccc(F)cc3F)cc2C(=O)N2CC[C@H](NC(=O)N3CCOCC3)[C@@H]12 | inactive
26 | COc1ccc(C(=O)NC2CCN(c3cc(-c4ccc(F)cc4)[nH]n3)C2)c(C)c1 (centres undefined) | inconclusive: 11.2 µM [inhibitor, partial curve, poor fit]
27 | O=C1CC2CCN(C(=O)C3CCCC3)CC2CCN1 (centres undefined) | inconclusive: 8.91 µM [inhibitor, partial curve, poor fit]
28 | CCc1cccc(N2C(=O)CSC23C(=O)Nc2ccccc23)c1 (centres undefined) | inconclusive: 1 µM [inhibitor, partial curve, poor fit]
29 | CC(=O)N(C1CCOCC1)C1CCN(C(=O)NCc2ccc(OC(F)(F)F)cc2)CC1 | inconclusive: 7.08 µM [inhibitor, single point]
30 | Cc1nc(-c2ccccc2)n(CC(=O)Nc2ccc(F)c(Cl)c2)c(=O)c1CCO | inactive
31 | COc1cccc(-c2ccnc(-c3nnc(C)n3CCN3CCOCC3)c2)c1 | inactive
32 | COCCCn1c(C)cnc1CC1CCN(S(=O)(=O)c2cccs2)CC1 | inactive
33 | Cc1cc(C)c(NC(=O)CCS(=O)(=O)c2cc3c(cc2Cl)NC(=O)CO3)c(C)c1 | inconclusive: 20 µM [inhibitor, single point]
34 | CCn1cc(C(=O)N2CCN(c3ccc(C)cc3)C(C)C2)c(=O)c2cc(S(=O)(=O)N3CCCC3)ccc21 (centres undefined) | inconclusive: 6.31 µM [inhibitor, full curve, poor fit]
35 | COc1cc2c(cc1OC)C(COc1cccc(C(F)(F)F)c1)N(C(=O)c1ccc(S(=O)(=O)N3CCCC3)cc1)CC2 (centres undefined) | inconclusive: 25.1 µM [inhibitor, partial curve, poor fit]
36 | Cc1noc(C)c1-c1cc2c(cc(C)n2CCN(C)C)c(-c2ccsc2)n1 | inactive
37 | COc1cccc(CNC(=O)Nc2cccc(-c3ccc(N4CCCCC4)nn3)c2)c1 | inactive
38 | COC(=O)[C@@H]1CCCN1c1ccc(-c2nc(-c3ccccc3F)no2)cn1 | active: 11.2 µM
39 | CCn1cc(CN2CCCC(c3nc(-c4cnccn4)no3)CCNC(=O)CC2)cn1 (centres undefined) | inactive
40 | COc1ccc(OC)c(CNC(=O)C23CCC=C2N(C2CCCC2)C(=O)CC3)c1 (centres undefined) | inactive
41 | Cc1ccc2c(C)c(C(=O)N3C[C@@H](NS(C)(=O)=O)[C@H](C(C)C)C3)oc2c1 | inconclusive: 39.8 µM [inhibitor, single point]
42 | CCCCCNC(=O)CNC(=O)c1cccc(-c2ccsc2)c1 | inactive
43 | Cc1noc(-c2cccc(F)c2)c1C(=O)NCCCc1ccccc1 | inactive
44 | COc1ccccc1C(=O)NC[C@H]1Cn2c(-c3ccc(Cl)cc3)cnc2CO1 | inconclusive: 25.1 µM [inhibitor, partial curve, poor fit]
45 | CCCCC(=O)OC1=C(C(=O)c2ccccc2)N(CCC)S(=O)(=O)c2ccccc21 | inconclusive: 31.6 µM [inhibitor, partial curve]
46 | Cc1ccc(S(=O)(=O)N2CCC(n3cnnc3-c3ccccc3)CC2)cc1Cl | inactive

Row | Compound | Potency
47 | O=C(NCc1ccc(F)cc1)N1CCC(OCCOc2ccc(F)cc2)CC1 | inconclusive: 8.91 µM [inhibitor, partial curve, poor fit]
48 | CCc1noc(-c2ccn3c(CNC(=O)c4ccoc4)nnc3c2)n1 | inactive
49 | Cn1nccc1C(=O)NCC1COc2ncncc2C(=O)N1Cc1ccccc1 (centres undefined) | inactive
50 | O=C(NCC1CC1)c1cc2n(n1)CC(c1ccc(Cl)cc1)OC2 (centres undefined) | inconclusive: 39.8 µM [inhibitor, single point]
51 | N#Cc1cccc(CN2C[C@H](O)C[C@H]2c2nc(-c3ccc4c(c3)OCO4)no2)c1 | inactive
52 | O=C(CC1CCCCC1)NC(Cc1ccccc1)C(=O)N1CCN(c2ccccn2)CC1 (centres undefined) | inconclusive: 22.4 µM [inhibitor, single point]
53 | OCc1ccc(CN2C[C@H](O)C[C@H]2c2nc(-c3ccccc3)no2)o1 | inactive
54 | CC(C)(C)OC(=O)NCCCC(=O)N1CCC(n2c(=O)[nH]c3ccccc32)CC1 | inactive
55 | O=C(NCCc1ccccc1)c1nc(-c2ccc(Cl)cc2)n2c1CCCCC2 | inconclusive: 39.8 µM [inhibitor, single point]
56 | COc1cccc(-c2ncc3c(n2)OCCN(c2ccccc2)C3=O)c1 | inconclusive: 8.91 µM [inhibitor, full curve, poor fit]
57 | O=[S+]([O-])(NCC1CN(Cc2cccc(Cl)c2)CC12CN(c1ccccc1)C2)c1ccccc1 (centres undefined) | inconclusive: 39.8 µM [inhibitor, single point]
58 | COc1cccc(C(=O)NCC2CCCN(Cc3ccccn3)C2)c1OC (centres undefined) | inconclusive: 39.8 µM [inhibitor, single point]
59 | Cc1cccc(N2CCN(C(=O)Cn3nc(C)n4cccc4c3=O)CC2C)c1 (centres undefined) | inconclusive: 39.8 µM [inhibitor, single point]
60 | COC(=O)c1cc2n(n1)CCCN(C(=O)c1cc(C)nc3ccc(C)cc13)C2 | inconclusive: 2.51 µM [inhibitor, full curve, poor fit]
61 | COc1ccc(S(=O)(=O)c2cnc3ccc(Cl)cc3c2N2CCCCC2C)cc1 (centres undefined) | inconclusive: 39.8 µM [inhibitor, single point]
62 | CC(NC(=O)c1ccc(-c2ccc(N3CCCCCC3)nc2)cc1)c1cccnc1 (centres undefined) | inconclusive: 39.8 µM [inhibitor, single point]
63 | O=C1CC(c2ccccc2)N(C(=O)C2CC2)CCCN(C(=O)c2ccc3cc[nH]c3c2)CCN1 (centres undefined) | inactive
64 | CNC(=O)[C@@H](C1CC1)N1CCC[C@H]1C(=O)NCC1CC1 | inconclusive: 2.51 µM [inhibitor, full curve, poor fit]
65 | Cc1cccc(CNC(=O)CCn2c(=O)c3cccn3c3ccc(F)cc32)c1 | inconclusive: 39.8 µM [inhibitor, single point]
66 | COc1ccc(NC(=O)c2oc3ccc(S(=O)(=O)N4CCCCC4)cc3c2C)cc1 | inconclusive: 28.2 µM [inhibitor, partial curve, poor fit]
67 | Cn1cc(-c2ccc3nnc(Sc4ccc5ncccc5c4)n3n2)cn1 | inactive
68 | Cn1nc(C(=O)NCc2cccnc2)c2c1CN(C(=O)CC1CCCCC1)C2 | inactive
69 | CC(C)CN1CCCC(c2nc3ccc(F)cc3c(=O)[nH]2)C1 (centres undefined) | inconclusive: 0.891 µM [inhibitor, full curve, poor fit]
